Reference: PubChem BioAssay AID900 (National Center for Advancing Translational Sciences (NCATS), 2007)
“And” between values parts separate entries of the source, which are not always exact repeats. Equal values may be shown once. Hit rate of the full screen: of about 75,000 compounds, about 20 (0.03%) were called active. The shares of active, inactive and inconclusive entries below differ from those in the screen. The call rests on the fitted dose curve; in most records, active means well fitted inhibition curve with a large enough effect; inconclusive means small, poorly fitted or top-dose-only effect; inactive means flat fitted curve, though single readings scatter. Potencies of inconclusive entries are doubtful fits and often do not repeat.

The compounds below were run against Caspase-1 (Homo sapiens) (UniProt P29466) (assay: qHTS Assay for Allosteric/Competitive Inhibitors of Caspase-1). Conditions: Caspase-1 enzyme, Ac-WEHD-AFC fluorogenic rate; activity change, negative = inhibition: at 57.5 µM (top of the series) unless noted.
Potency means the concentration at half of the fitted maximal effect; tags describe the fitted curve by direction and shape or compound fluorescence and quenching.
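Wherever activity change, negative = inhibition is given: plate controls were vehicle for no effect and no substrate for full effect.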

SMILES | activity change, negative = inhibition | Potency
C=CCSc1nc2c(N)ncnc2n1[C@@H]1O[C@H](CO)[C@@H](O)[C@@H]1O | inactive: -3.15% [at 11.5 µM] | –
CCOc1ccc(C(=O)Nc2ccc3c(c2)OCCO3)cc1OC | – | inconclusive: 31.6 µM [inhibitor, single point]
CCOC(=O)c1c(NC(=O)c2csc(C)c2)sc(C(C)=O)c1C | – | inconclusive: 15.8 µM [inhibitor, partial curve]
Cc1nc2cnc(N(C)C)nc2n(CCc2ccccc2)c1=O | – | inconclusive: 20 µM [inhibitor, partial curve]
Cc1cc(N=Cc2cc(Cl)ccc2O)no1 | – | inconclusive: 31.6 µM [inhibitor, partial curve]
Clc1ccc(-c2nnc(-c3ccccc3Cl)o2)cc1 | inactive: -4.01% | –
CCCCCSc1nnc2c(n1)OC(C)N(C(C)=O)c1ccccc1-2 (stereo not given) | – | inconclusive: 31.6 µM [inhibitor, partial curve]
COC(=O)c1[nH]c2c(c1C)C(=O)CCC2 | inactive: 1.34% | –
CCc1c(C)sc(NC(=O)c2cccs2)c1C(=O)OC(C)C | – | inconclusive: 31.6 µM [inhibitor, partial curve]
Cc1cccn2c(=O)c3cc(C(=O)NCCCN4CCOCC4)n(C)c3nc12 | inactive: -6.61% | –
COC(=O)C1=C(C)N(Cc2ccccc2)C2=C3C(=O)N(c4ccccc4)C(=O)C3[C@@](O)(C(=O)OC)C(=O)N2C1c1ccccc1 (stereo not given in full) | – | inconclusive: 6.31 µM [inhibitor, single point]
CCOc1ccc(C(=O)c2ccc(O)c(O)c2O)cc1 | inactive: 3.74% | –
Cc1nc2cnc(N3CCOCC3)nc2n(CCC#N)c1=O | – | inconclusive: 20 µM [inhibitor, partial curve]
O=C(Nc1ccc(N2CCCC2)c(Cl)c1)c1ccco1 | – | inconclusive: 31.6 µM [inhibitor, partial curve]
CC(C)CCn1c(N)c(S(=O)(=O)c2cccs2)c2nc3ccccc3nc21 | – | inconclusive: 12.6 µM [inhibitor, partial curve]
O=C1c2cccc3c(N4CCCCC4)ccc(c23)C(=O)N1c1ccccn1 | – | inconclusive: 10 µM [inhibitor, partial curve]
O=C(c1cc(Br)ccc1O)c1cc(Br)ccc1O | – | inconclusive: 5.01 µM [inhibitor, partial curve]
Cc1sc2nnn(CC(=O)N3CCN(C(=O)c4ccco4)CC3)c(=O)c2c1C | – | inconclusive: 31.6 µM [inhibitor, single point]
O=C(O)CC(NC(=O)c1ccccc1NC(=O)c1ccccc1)C(=O)O (stereo not given) | inactive: -1.73% | –
CC1=C(C(=O)Nc2cc(C)ccn2)C(c2ccc(C)cc2)C2=C(CCCC2=O)N1 (stereo not given) | – | inconclusive: 25.1 µM [inhibitor, partial curve]
COc1ccccc1CNc1ncncc1-c1ccc(C(=O)N(C)C)cc1 | inactive: -0.658% | –
O=c1[nH]c2ccccc2n1CCCSCCCn1c(=O)[nH]c2ccccc21 | inactive: -4.45% | –
Cn1c(SC2=CS(=O)(=O)c3ccccc32)nc2ccccc21 | inactive: 0.0392% | –
CCC(C)(C)n1nnnc1CN1CCN(c2nc3cc(OC)ccc3cc2C#N)CC1 | – | inconclusive: 31.6 µM [inhibitor, partial curve]
CCN1CCN(c2cc(C)c3cc(NC(=O)c4ccc(Br)o4)ccc3n2)CC1 | inactive: -1.73% | –

SMILES | activity change, negative = inhibition | Potency
Nc1ccccc1C#Cc1ccccc1 | inactive: -1.39% | –
CCN(CC)c1ccc(/C=N/n2nnnc2N)c(O)c1 | – | inconclusive: 31.6 µM [inhibitor, partial curve]
CC(=O)Nc1cccc(NC(=O)c2ccco2)c1 | inactive: -2.44% | –
COCCn1c(=O)c(CCc2ccccc2)nc2cnc(N3CCOCC3)nc21 | – | inconclusive: 31.6 µM [inhibitor, partial curve]
CCOc1ccccc1NC(=O)c1cc(Cl)ccc1NC(=O)c1ccco1 | inactive: -3.6% | –
O=C1C[C@@H](O)[C@@H](O)[C@H]2[C@@H]3C(=O)N(c4cccc(Oc5ccccc5)c4)C(=O)[C@@H]3CC[C@H]12 | inactive: -0.142% [at 11.5 µM] and inactive: -0.295% [at 11.5 µM] | –
N#C/C(=C\Nc1ccc2c(c1)OCCO2)c1nc2ccccc2[nH]1 | – | inconclusive: 39.8 µM [inhibitor, partial curve]
c1ccc(CCNc2c3c(nc4ncnn24)CCC3)cc1 | inactive: 2.55% | –
CCOC(=O)c1cc(C#N)c(N)nc1C | inactive: 0.0838% | –
Cn1c(-c2ccc3ccccc3n2)nc2cnccc21 | – | inconclusive: 25.1 µM [inhibitor, partial curve]
CCN1C=C(Cc2cccs2)C2=C(C1)C(c1cccs1)C(C#N)=C(N)O2 (stereo not given) | inactive: -15.3% | –
CC(C)C(C)C | inactive: -8.19% | –
O=C(CN1C(=O)C2CCc3[nH]c4ccccc4c3C2C1=O)N1CCCC1 (stereo not given) | – | inconclusive: 39.8 µM [inhibitor, single point]
O=C(c1ccco1)n1c(=S)nc2ccccn21 | inactive: -0.516% | –
N#CC1=C2SCN(Cc3ccccc3)CN2C(=O)CC1c1ccc2c(c1)OCO2 (stereo not given) | inconclusive: -15.7% [inhibitor] | –
COc1ccc(-n2c(C)cc(C(=O)Cn3c(NCCO)nc4ccccc43)c2C)cc1 | inactive: 0.187% | –
CC1Cn2c(nnc2-c2cccc(Cl)c2)S1 (stereo not given) | inactive: -3.1% | –
CCOc1cc(OCC)c(C(C)=O)cc1OCC | inactive: -3.07% | –
N#Cc1c(N)sc(=S)c2c1CCCC2 | – | inconclusive: 25.1 µM [inhibitor, partial curve]
Cc1nn(-c2ccc(F)cc2)c2nc(N)c(C#N)c(-c3cccs3)c12 | – | inconclusive: 31.6 µM [inhibitor, partial curve]
Nc1cc(-c2ccncc2)c[nH]c1=O | – | inconclusive: 20 µM [inhibitor, single point] and inconclusive: 39.8 µM [inhibitor, single point]
Cc1cc(Cl)ccc1OC(C)C(=O)Nc1ccccc1N1CCOCC1 (stereo not given) | inactive: 2.09% | –
CCOC(=O)c1c(NC(=O)c2ccco2)sc2c1CCCCC2 | inactive: -12.8% | –
CCc1nnc(NC(=O)CSc2nnc(Cc3ccccc3)o2)s1 | inactive: 3.1% | –
CCOC(=O)C1CCCN(c2cc(C)nc3cc(-c4ccc(F)cc4)nn23)C1 (stereo not given) | inconclusive: -18.3% [inhibitor] | –
